Measured values reported in PMC3474740.
Results are given in words; binding and its absence hold for the method and conditions named. For some assays here: In cells and extracts the contact can be indirect. Some entries that bind do so weakly or less than the wild type.

Sequences of proteins named here, by UniProt entry; tags and fusion partners are left off. A change or cut given only in a name is not applied to a line headed by its entry. Residues count along the entry.
UniProt O75461: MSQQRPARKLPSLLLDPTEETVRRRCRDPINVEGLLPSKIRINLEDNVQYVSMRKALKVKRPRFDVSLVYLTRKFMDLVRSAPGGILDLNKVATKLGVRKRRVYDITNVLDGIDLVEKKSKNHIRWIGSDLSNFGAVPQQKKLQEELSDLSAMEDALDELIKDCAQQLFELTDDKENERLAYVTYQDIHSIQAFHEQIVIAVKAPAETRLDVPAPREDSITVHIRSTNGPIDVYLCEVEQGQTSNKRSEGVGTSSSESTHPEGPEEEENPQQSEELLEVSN
UniProt Q14186: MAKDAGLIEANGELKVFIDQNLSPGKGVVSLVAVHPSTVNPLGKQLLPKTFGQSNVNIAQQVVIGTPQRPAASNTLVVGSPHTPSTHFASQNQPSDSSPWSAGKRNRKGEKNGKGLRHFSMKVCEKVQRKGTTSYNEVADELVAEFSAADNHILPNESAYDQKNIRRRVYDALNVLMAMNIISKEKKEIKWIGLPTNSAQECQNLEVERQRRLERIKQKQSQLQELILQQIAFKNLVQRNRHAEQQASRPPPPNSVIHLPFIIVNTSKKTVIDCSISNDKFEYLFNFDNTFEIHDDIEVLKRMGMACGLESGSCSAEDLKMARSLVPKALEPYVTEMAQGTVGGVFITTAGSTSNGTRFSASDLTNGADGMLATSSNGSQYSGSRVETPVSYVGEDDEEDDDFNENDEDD
UniProt Q01094: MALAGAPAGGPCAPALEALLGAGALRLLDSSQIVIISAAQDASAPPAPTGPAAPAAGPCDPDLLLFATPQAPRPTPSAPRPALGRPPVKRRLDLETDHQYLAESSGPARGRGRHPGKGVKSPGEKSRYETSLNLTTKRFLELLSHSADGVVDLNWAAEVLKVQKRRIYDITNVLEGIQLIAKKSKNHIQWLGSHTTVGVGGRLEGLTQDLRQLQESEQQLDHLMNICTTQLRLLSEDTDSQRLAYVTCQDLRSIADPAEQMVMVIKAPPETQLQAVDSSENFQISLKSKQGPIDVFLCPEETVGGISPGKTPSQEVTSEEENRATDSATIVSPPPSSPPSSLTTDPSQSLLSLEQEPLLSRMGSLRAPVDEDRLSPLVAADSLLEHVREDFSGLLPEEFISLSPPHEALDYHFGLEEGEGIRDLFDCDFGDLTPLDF
UniProt O00716: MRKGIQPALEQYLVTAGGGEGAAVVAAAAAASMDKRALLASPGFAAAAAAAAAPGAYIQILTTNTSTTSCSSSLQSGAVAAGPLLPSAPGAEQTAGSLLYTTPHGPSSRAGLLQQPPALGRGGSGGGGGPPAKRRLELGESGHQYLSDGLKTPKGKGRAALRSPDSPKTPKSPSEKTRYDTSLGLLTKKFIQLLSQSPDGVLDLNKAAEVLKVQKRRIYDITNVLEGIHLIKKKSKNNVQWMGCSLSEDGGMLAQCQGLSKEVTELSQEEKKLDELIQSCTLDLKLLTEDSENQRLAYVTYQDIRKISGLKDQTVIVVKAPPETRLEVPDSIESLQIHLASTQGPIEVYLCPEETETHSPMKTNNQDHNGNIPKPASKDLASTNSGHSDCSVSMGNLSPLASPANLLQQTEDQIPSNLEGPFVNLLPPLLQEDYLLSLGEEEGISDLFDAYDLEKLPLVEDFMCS
UniProt Q14209: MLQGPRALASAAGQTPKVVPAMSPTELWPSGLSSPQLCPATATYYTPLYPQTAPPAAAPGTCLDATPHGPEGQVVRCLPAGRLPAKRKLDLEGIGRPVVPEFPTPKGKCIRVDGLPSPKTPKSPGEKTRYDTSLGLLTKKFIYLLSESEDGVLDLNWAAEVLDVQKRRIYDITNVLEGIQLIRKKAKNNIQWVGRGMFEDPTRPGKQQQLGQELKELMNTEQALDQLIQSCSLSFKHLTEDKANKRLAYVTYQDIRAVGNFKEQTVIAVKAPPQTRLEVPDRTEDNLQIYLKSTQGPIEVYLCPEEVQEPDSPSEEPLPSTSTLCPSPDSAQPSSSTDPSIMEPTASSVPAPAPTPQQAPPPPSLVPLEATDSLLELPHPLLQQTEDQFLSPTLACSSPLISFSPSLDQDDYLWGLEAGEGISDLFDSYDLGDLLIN
UniProt Q16254: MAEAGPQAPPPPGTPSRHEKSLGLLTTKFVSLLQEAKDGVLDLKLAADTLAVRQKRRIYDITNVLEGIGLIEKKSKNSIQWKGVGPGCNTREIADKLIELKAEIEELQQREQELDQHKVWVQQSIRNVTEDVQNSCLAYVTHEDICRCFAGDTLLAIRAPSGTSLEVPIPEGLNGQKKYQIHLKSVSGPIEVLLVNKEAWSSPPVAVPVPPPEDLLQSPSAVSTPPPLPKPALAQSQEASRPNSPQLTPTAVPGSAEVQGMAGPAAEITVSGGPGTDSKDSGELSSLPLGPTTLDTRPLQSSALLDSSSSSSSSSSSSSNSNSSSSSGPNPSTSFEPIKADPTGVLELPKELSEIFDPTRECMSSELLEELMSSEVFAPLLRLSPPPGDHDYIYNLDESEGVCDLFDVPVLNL
UniProt P51532: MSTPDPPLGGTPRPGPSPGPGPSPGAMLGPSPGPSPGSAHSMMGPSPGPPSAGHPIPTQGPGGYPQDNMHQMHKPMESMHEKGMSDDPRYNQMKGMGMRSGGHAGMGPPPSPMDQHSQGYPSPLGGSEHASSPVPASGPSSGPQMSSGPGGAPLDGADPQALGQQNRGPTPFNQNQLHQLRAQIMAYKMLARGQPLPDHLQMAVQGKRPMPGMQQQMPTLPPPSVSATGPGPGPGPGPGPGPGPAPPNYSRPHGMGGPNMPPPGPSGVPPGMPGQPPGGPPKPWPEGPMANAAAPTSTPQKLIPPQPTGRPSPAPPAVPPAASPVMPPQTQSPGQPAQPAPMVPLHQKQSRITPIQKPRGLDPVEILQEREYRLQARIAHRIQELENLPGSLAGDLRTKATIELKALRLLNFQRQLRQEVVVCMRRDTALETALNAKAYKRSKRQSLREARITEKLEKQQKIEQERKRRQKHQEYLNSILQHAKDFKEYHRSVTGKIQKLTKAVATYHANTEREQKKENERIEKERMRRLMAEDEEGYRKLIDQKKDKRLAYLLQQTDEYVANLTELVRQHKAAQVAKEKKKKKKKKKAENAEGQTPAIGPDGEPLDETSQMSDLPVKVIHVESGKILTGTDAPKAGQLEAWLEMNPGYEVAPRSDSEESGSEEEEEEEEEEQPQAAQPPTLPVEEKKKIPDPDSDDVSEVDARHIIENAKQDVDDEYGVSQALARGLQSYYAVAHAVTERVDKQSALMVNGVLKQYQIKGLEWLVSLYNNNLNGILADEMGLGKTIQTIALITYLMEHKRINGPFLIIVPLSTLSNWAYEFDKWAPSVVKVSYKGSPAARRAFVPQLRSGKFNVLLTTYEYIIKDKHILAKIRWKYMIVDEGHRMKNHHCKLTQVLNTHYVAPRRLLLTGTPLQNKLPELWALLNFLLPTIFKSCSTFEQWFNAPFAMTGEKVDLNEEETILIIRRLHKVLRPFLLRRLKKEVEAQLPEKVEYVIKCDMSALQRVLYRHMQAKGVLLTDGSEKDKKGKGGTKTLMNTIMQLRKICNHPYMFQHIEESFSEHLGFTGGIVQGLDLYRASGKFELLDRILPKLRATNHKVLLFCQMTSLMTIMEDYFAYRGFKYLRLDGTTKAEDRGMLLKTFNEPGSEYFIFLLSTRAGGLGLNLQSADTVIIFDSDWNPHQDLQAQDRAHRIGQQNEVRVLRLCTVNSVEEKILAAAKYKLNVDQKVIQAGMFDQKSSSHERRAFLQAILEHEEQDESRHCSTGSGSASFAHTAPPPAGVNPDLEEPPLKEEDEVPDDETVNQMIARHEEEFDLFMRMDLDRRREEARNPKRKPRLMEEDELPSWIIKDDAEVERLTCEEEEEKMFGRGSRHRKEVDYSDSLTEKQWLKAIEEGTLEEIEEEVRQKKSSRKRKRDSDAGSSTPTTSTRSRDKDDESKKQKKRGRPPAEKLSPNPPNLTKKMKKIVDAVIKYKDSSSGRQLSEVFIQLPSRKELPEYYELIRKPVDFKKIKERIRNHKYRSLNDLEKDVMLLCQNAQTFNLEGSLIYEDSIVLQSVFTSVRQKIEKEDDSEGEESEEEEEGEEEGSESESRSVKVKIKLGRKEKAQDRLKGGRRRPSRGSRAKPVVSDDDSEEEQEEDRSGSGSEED
BRG1 clone from the yeast two-hybrid screen, amino acids 462–578: residues 462-578 of P51532
UniProt Q86U86: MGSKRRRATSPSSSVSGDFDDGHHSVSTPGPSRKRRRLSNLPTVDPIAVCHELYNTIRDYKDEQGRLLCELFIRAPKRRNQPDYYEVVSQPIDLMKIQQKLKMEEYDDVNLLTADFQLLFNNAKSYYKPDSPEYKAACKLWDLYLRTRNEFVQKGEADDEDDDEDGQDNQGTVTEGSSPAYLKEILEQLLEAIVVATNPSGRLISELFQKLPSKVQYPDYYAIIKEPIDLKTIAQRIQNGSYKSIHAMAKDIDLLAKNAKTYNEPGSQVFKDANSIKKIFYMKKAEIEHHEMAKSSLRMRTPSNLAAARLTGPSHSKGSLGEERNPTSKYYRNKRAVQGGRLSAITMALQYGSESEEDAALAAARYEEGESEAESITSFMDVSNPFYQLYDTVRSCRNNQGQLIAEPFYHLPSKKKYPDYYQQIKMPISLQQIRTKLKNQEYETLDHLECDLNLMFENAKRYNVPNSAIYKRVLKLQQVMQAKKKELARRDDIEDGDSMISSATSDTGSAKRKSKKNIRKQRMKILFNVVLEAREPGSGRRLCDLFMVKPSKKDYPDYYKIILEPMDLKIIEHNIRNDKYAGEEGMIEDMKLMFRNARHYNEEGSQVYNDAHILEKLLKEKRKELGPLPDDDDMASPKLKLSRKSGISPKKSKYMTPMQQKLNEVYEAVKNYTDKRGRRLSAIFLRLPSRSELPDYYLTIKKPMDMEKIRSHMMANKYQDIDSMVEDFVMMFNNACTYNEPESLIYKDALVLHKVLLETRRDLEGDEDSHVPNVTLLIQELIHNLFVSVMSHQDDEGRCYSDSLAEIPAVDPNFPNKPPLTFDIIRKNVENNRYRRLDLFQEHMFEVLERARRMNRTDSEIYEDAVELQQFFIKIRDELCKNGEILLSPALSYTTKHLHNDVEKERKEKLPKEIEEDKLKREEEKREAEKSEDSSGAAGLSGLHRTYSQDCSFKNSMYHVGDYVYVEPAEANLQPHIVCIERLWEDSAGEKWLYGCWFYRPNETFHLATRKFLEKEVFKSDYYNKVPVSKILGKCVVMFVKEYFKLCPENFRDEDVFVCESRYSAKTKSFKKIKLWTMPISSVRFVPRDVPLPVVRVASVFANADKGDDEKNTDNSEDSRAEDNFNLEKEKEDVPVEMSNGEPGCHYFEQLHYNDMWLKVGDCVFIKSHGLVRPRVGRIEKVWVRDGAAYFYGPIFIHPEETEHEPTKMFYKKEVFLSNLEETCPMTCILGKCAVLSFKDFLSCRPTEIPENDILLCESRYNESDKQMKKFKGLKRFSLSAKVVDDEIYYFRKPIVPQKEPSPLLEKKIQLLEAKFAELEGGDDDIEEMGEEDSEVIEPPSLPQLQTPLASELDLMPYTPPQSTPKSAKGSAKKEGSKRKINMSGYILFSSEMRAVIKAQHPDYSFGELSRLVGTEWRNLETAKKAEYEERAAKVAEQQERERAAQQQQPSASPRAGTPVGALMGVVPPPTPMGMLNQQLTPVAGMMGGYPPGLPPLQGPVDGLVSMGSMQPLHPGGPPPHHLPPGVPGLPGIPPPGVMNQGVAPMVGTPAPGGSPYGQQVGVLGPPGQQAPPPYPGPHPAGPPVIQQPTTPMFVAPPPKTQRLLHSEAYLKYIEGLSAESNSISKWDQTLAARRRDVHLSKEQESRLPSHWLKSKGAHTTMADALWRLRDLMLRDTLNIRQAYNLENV

Columns and labels:
[1] = biological target: endogenous E2F6 (human (endogenous in 293)) (UniProt O75461); assay: co-IP; endogenous proteins, asynchronously growing 293 cells, no transfection; IP with a polyclonal antibody to E2F6, blot for BRG1
[2] = biological target: DP1 expressed in 293 cells (UniProt Q14186); assay: co-IP; plasmids co-transfected into 293 (293T in Figure 3C) cells; IP with antibodies to HA, DP1, BAF155 or BAF180; lysis buffer 50 mM Tris-HCl pH 7.4, 150 mM NaCl, 1 mM EDTA, 1% Triton X-100
[3] = biological target: BAF155 expressed in 293 cells (UniProt Q92922); assay: as above
[4] = biological target: GAL4 DNA-binding domain (DBD)-E2F6 fusion (human) (UniProt O75461); assay: two-hybrid; GAL4-based; GAL4 DBD-E2F bait in pGBT9B in yeast together with DP1; preys are clones from a BD Matchmaker Human Testis Library (screen with E2F6, clones retested against E2Fs 1-4 and E2F6)
[5] = biological target: E2F1 in pGBT9B (GAL4 DNA-binding domain fusion) (human) (UniProt Q01094); assay: as above
[6] = biological target: E2F3 in pGBT9B (GAL4 DNA-binding domain fusion) (human) (UniProt O00716); assay: as above
[7] = biological target: E2F2 in pGBT9B (GAL4 DNA-binding domain fusion) (human) (UniProt Q14209); assay: as above
[8] = biological target: E2F4 in pGBT9B (GAL4 DNA-binding domain fusion) (human) (UniProt Q16254); assay: as above
[9] = biological target: BRG1 overexpressed in T98G cells (human) (UniProt P51532); assay: co-IP; BRG1 and E2F6 co-transfected into T98G cells; IP with a monoclonal antibody to BRG1; lysis buffer 50 mM Tris-HCl pH 7.4, 150 mM NaCl, 1 mM EDTA, 1% Triton X-100
[10] = biological target: Flag-tagged BAF180 (UniProt Q86U86); assay: co-IP; plasmids co-transfected into 293 (293T in Figure 3C) cells; IP with antibodies to HA, DP1, BAF155 or BAF180; lysis buffer 50 mM Tris-HCl pH 7.4, 150 mM NaCl, 1 mM EDTA, 1% Triton X-100
[11] = biological target: HA-tagged E2F6 (human) (UniProt O75461); assay: as above
[12] = biological target: HA-tagged E2F4 (human) (UniProt Q16254); assay: as above
[13] = biological target: HA-tagged E2F2 (human) (UniProt Q14209); assay: as above
[14] = biological target: HA-tagged E2F3 (human) (UniProt O00716); assay: as above
[15] = biological target: GST-E2F6 recombinant protein (human) (UniProt O75461); assay: pull-down; GST or GST-E2F6 on GST-Sepharose beads incubated with [35S] methionine-labeled in vitro translated BRG1 in TBS/1% Triton X-100 at 4°C; autoradiography; only the target purified

endogenous BRG1 (from UniProt P51532 1-1647)
binding [1]: binds

E2F6 expressed in 293 cells (from UniProt O75461 1-281)
binding [2]: binds | binding [3]: binds

BRG1 clone from the yeast two-hybrid screen, amino acids 462–578 (from UniProt P51532-1 462-578) (domain or fragment)
binding [4]: binds | binding [5]: no binding | binding [6]: no binding | binding [7]: no binding | binding [8]: no binding

E2F6 overexpressed in T98G cells (from UniProt O75461 1-281)
binding [9]: binds

HA-tagged E2F6 (from UniProt O75461 1-281)
binding [10]: binds

BRG1 expressed in 293 cells (from UniProt P51532-1 1-1647)
binding [11]: binds | binding [2]: binds | binding [12]: binds | binding [13]: no binding | binding [14]: no binding

flag-tagged BRG1 (from UniProt P51532-1 1-1647)
binding [11]: binds

S^35-labeled in vitro-translated BRG1 (from UniProt P51532-1 1-1647)
binding [15]: binds
